# From the supplement of paper PMC9588766
# Counter-ions that a name gives are not always drawn. Over roughly 1,900 compounds, “cell viability of compound + 1 nM pemigatinib relative to pemigatinib-only (DMSO) wells” has its median near 0.95; the lowest 2% begin near 0.22. This is one part of the list.
# Test system: PDC-DUC18828
# Experiment: cell viability of compound + 1 nM pemigatinib relative to pemigatinib-only (DMSO) wells (fraction); PDC-DUC18828 is a patient-derived cholangiocarcinoma cell line; higher = less growth inhibition
# Details: first compound 1 µM; pemigatinib concentration 1 nM; 72 h
# Method: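 Selleck Bioactive library screen in the patient-derived FGFR2 fusion-positive ICC cell line PDC-DUC18828 (500 cells/well). Each compound was tested at 1 uM with 1 nM pemigatinib, in triplicate, for 72 h. Viability was read by CellTiter-Glo and normalised to plate DMSO controls. Value is the paper's averaged normalised viability.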
row,Structure (SMILES),cell viability
1,O=c1[nH]cnc2c1ncn2[C@@H]1O[C@H](CO)[C@@H](O)[C@H]1O [Inosine] + CCN1C(=O)N(c2c(F)c(OC)cc(OC)c2F)Cc2cnc3[nH]c(CN4CCOCC4)cc3c21 [pemigatinib],0.963
2,CCOc1ccccc1OC(c1ccccc1)C1CNCCO1 (configuration not stated) [Reboxetine mesylate] + CCN1C(=O)N(c2c(F)c(OC)cc(OC)c2F)Cc2cnc3[nH]c(CN4CCOCC4)cc3c21 [pemigatinib],0.96
3,c1cncc(CN2CCC(n3ncc4c(N5CCOCC5)nc(-c5ccc6[nH]ccc6c5)nc43)CC2)c1 + CCN1C(=O)N(c2c(F)c(OC)cc(OC)c2F)Cc2cnc3[nH]c(CN4CCOCC4)cc3c21 [pemigatinib],0.592
4,COC1CCN(C(=O)c2cc(Cc3n[nH]c(=O)c4ccccc34)ccc2F)CC1 + CCN1C(=O)N(c2c(F)c(OC)cc(OC)c2F)Cc2cnc3[nH]c(CN4CCOCC4)cc3c21 [pemigatinib],0.884
5,Cc1cc(C)c(S(=O)(=O)n2cc(C)cc2C)c(C)c1 + CCN1C(=O)N(c2c(F)c(OC)cc(OC)c2F)Cc2cnc3[nH]c(CN4CCOCC4)cc3c21 [pemigatinib],0.957
6,Cc1[nH]c2ccccc2c1CCNCc1ccc(/C=C/C(=O)NO)cc1 [Panobinostat (LBH589)] + CCN1C(=O)N(c2c(F)c(OC)cc(OC)c2F)Cc2cnc3[nH]c(CN4CCOCC4)cc3c21 [pemigatinib],0.0639
7,O=C(O)[C@H]1O[C@@H](Oc2cc3oc(-c4ccccc4)cc(=O)c3c(O)c2O)[C@H](O)[C@@H](O)[C@@H]1O [Baicalin] + CCN1C(=O)N(c2c(F)c(OC)cc(OC)c2F)Cc2cnc3[nH]c(CN4CCOCC4)cc3c21 [pemigatinib],1.01
8,Cn1cc(-c2ccncc2)c(-c2ccc(OCc3ccc4ccccc4n3)cc2)n1 + CCN1C(=O)N(c2c(F)c(OC)cc(OC)c2F)Cc2cnc3[nH]c(CN4CCOCC4)cc3c21 [pemigatinib],0.99
9,C=CC(=O)Nc1ccc(CN2C(=O)N(c3cc(OC)cc(OC)c3)Cc3cnc(Nc4ccc(N5CCN(C)CC5)cc4)nc32)cc1 + CCN1C(=O)N(c2c(F)c(OC)cc(OC)c2F)Cc2cnc3[nH]c(CN4CCOCC4)cc3c21 [pemigatinib],0.871
10,Cc1ncc(Cl)cc1NCc1ccc(C(=O)N[C@@H](CC2CCCC2)C(=O)NC2CC2)s1 + CCN1C(=O)N(c2c(F)c(OC)cc(OC)c2F)Cc2cnc3[nH]c(CN4CCOCC4)cc3c21 [pemigatinib],0.957
11,C=CC(C)(C)c1cc(/C=C/C(=O)c2ccc(O)cc2)c(OC)cc1O [Licochalcone A] + CCN1C(=O)N(c2c(F)c(OC)cc(OC)c2F)Cc2cnc3[nH]c(CN4CCOCC4)cc3c21 [pemigatinib],0.924
12,CCCCCCCCCCCCc1ccc(S(=O)(=O)Nc2nncs2)cc1 + CCN1C(=O)N(c2c(F)c(OC)cc(OC)c2F)Cc2cnc3[nH]c(CN4CCOCC4)cc3c21 [pemigatinib],1
13,OC(CCCN1CCCCC1)(c1ccccc1)c1ccccc1 [Diphenidol HCl] + CCN1C(=O)N(c2c(F)c(OC)cc(OC)c2F)Cc2cnc3[nH]c(CN4CCOCC4)cc3c21 [pemigatinib],0.927
14,CCN(CC)CCOC(=O)C(c1ccccc1)c1ccccc1 [Adiphenine HCl] + CCN1C(=O)N(c2c(F)c(OC)cc(OC)c2F)Cc2cnc3[nH]c(CN4CCOCC4)cc3c21 [pemigatinib],1.01
15,C[C@H]1[C@H](C)CC[C@]2(C(=O)O)CC[C@]3(C)C(=CC[C@@H]4[C@@]5(C)C[C@@H](O)[C@H](O)[C@@](C)(CO)[C@@H]5CC[C@]43C)[C@H]12 [Asiatic Acid] + CCN1C(=O)N(c2c(F)c(OC)cc(OC)c2F)Cc2cnc3[nH]c(CN4CCOCC4)cc3c21 [pemigatinib],0.979
16,CCOC(=O)c1ccc(N)cc1 [Benzocaine] + CCN1C(=O)N(c2c(F)c(OC)cc(OC)c2F)Cc2cnc3[nH]c(CN4CCOCC4)cc3c21 [pemigatinib],1.02
17,CN1CCN(c2c(F)cc3c(=O)c(C(=O)O)cn4c3c2OCN4C)CC1 [Marbofloxacin] + CCN1C(=O)N(c2c(F)c(OC)cc(OC)c2F)Cc2cnc3[nH]c(CN4CCOCC4)cc3c21 [pemigatinib],1.06
18,CN(Cc1cnc2nc(N)nc(N)c2n1)c1ccc(C(=O)N[C@@H](CCC(=O)O)C(=O)O)cc1 [Methotrexate] + CCN1C(=O)N(c2c(F)c(OC)cc(OC)c2F)Cc2cnc3[nH]c(CN4CCOCC4)cc3c21 [pemigatinib],0.901
19,CCOc1ccc2nc3cc(N)ccc3c(N)c2c1 [Ethacridine lactate monohydrate] + CCN1C(=O)N(c2c(F)c(OC)cc(OC)c2F)Cc2cnc3[nH]c(CN4CCOCC4)cc3c21 [pemigatinib],0.889

row,Structure (SMILES),cell viability
1,Nc1cc(F)ccc1NC(=O)/C=C/c1cnn(C/C=C/c2ccccc2)c1 + CCN1C(=O)N(c2c(F)c(OC)cc(OC)c2F)Cc2cnc3[nH]c(CN4CCOCC4)cc3c21 [pemigatinib],0.976
2,O=C(CCCCCCC(=O)Nc1ccc([C@H]2O[C@@H](CSc3nc(-c4ccccc4)c(-c4ccccc4)o3)C[C@@H](c3ccc(CO)cc3)O2)cc1)NO [Tubacin] + CCN1C(=O)N(c2c(F)c(OC)cc(OC)c2F)Cc2cnc3[nH]c(CN4CCOCC4)cc3c21 [pemigatinib],0.983
3,COc1cc(C(C)=O)ccc1O [Apocynin] + CCN1C(=O)N(c2c(F)c(OC)cc(OC)c2F)Cc2cnc3[nH]c(CN4CCOCC4)cc3c21 [pemigatinib],0.968
4,OC(CN1CCN(c2cccc(Cl)c2)CC1)C(c1ccccc1)c1ccccc1 (configuration not stated) + CCN1C(=O)N(c2c(F)c(OC)cc(OC)c2F)Cc2cnc3[nH]c(CN4CCOCC4)cc3c21 [pemigatinib],0.997
5,COc1cc(OC)c(/C=C/S(=O)(=O)Cc2ccc(OC)c(NCC(=O)O)c2)c(OC)c1 + CCN1C(=O)N(c2c(F)c(OC)cc(OC)c2F)Cc2cnc3[nH]c(CN4CCOCC4)cc3c21 [pemigatinib],0.214
6,CN(C)[C@@H]1C(O)=C(C(N)=O)C(=O)[C@@]2(O)C(O)=C3C(=O)c4c(O)cccc4[C@@](C)(O)[C@H]3[C@H](O)[C@@H]12 [Oxytetracycline Dihydrate] + CCN1C(=O)N(c2c(F)c(OC)cc(OC)c2F)Cc2cnc3[nH]c(CN4CCOCC4)cc3c21 [pemigatinib],1.02
7,CN(C)[C@@H]1C(O)=C(C(N)=O)C(=O)[C@@]2(O)C(O)=C3C(=O)c4c(O)cccc4[C@@](C)(O)[C@H]3[C@H](O)[C@@H]12 [Oxytetracycline (Terramycin)] + CCN1C(=O)N(c2c(F)c(OC)cc(OC)c2F)Cc2cnc3[nH]c(CN4CCOCC4)cc3c21 [pemigatinib],0.977
8,C/C(=C\c1ccc(C(=O)O)cc1)c1ccc2c(c1)C(C)(C)CCC2(C)C [TTNPB (Arotinoid Acid)] + CCN1C(=O)N(c2c(F)c(OC)cc(OC)c2F)Cc2cnc3[nH]c(CN4CCOCC4)cc3c21 [pemigatinib],0.908
9,COc1ccc(-c2ccc3c(N4CCOCC4)nc(N4C[C@@H](C)O[C@@H](C)C4)nc3n2)cc1CO + CCN1C(=O)N(c2c(F)c(OC)cc(OC)c2F)Cc2cnc3[nH]c(CN4CCOCC4)cc3c21 [pemigatinib],0.933
10,NC(N)=Nc1nc(CSCC/C(N)=N/S(N)(=O)=O)cs1 [Famotidine] + CCN1C(=O)N(c2c(F)c(OC)cc(OC)c2F)Cc2cnc3[nH]c(CN4CCOCC4)cc3c21 [pemigatinib],1.05
11,CC1=C(/C=C/C(C)=C/C=C/C(C)=C\C(=O)O)C(C)(C)CCC1 [Isotretinoin] + CCN1C(=O)N(c2c(F)c(OC)cc(OC)c2F)Cc2cnc3[nH]c(CN4CCOCC4)cc3c21 [pemigatinib],0.937
12,CC/C(=C(/CC)c1ccc(O)cc1)c1ccc(O)cc1 [Diethylstilbestrol] + CCN1C(=O)N(c2c(F)c(OC)cc(OC)c2F)Cc2cnc3[nH]c(CN4CCOCC4)cc3c21 [pemigatinib],0.928
13,Cc1ccc([N+](=O)[O-])cc1S(=O)(=O)N(C)/N=C/c1cnc2ccc(Br)cn12 + CCN1C(=O)N(c2c(F)c(OC)cc(OC)c2F)Cc2cnc3[nH]c(CN4CCOCC4)cc3c21 [pemigatinib],0.902
14,Cc1noc(C)c1-c1ccc(-c2cc(C(N)=O)c(NC(N)=O)s2)c(O[C@H]2CCNC2)c1 + CCN1C(=O)N(c2c(F)c(OC)cc(OC)c2F)Cc2cnc3[nH]c(CN4CCOCC4)cc3c21 [pemigatinib],0.963
15,CCCCCCCc1ccc(CCc2cccc(O)c2C(=O)O)cc1 + CCN1C(=O)N(c2c(F)c(OC)cc(OC)c2F)Cc2cnc3[nH]c(CN4CCOCC4)cc3c21 [pemigatinib],1
16,Cc1ccccc1C(OCCN(C)C)c1ccccc1 (configuration not stated) [Orphenadrine Citrate] + CCN1C(=O)N(c2c(F)c(OC)cc(OC)c2F)Cc2cnc3[nH]c(CN4CCOCC4)cc3c21 [pemigatinib],1.02
17,O=C1C(O)=C([C@H]2CC[C@H](c3ccc(Cl)cc3)CC2)C(=O)c2ccccc21 [Atovaquone] + CCN1C(=O)N(c2c(F)c(OC)cc(OC)c2F)Cc2cnc3[nH]c(CN4CCOCC4)cc3c21 [pemigatinib],0.871
18,Cc1nn(C)c2c1C(c1ccc(C(F)(F)F)cc1)C(C#N)=C(N)O2 (configuration not stated) + CCN1C(=O)N(c2c(F)c(OC)cc(OC)c2F)Cc2cnc3[nH]c(CN4CCOCC4)cc3c21 [pemigatinib],0.921
